These are yes or no findings as the source states them, for the method shown. Some binding calls cover weakened binding; strength is not graded here. Tags and fused reporters may be left off the sequences shown.
What was measured:
[1] = target: T1, Cdc48 substrate-recruiting co-factor Ufd1, Y2H fusion (S. cerevisiae) (UniProt P53044); test: two-hybrid; directed Y2H: pGAD-C1 (AD) and pGBD-C1 (BD) fusions cotransformed into the Y2HGold strain; HIS3 reporter, 8 mM 3-AT added in Figure 4D
T1 sequence: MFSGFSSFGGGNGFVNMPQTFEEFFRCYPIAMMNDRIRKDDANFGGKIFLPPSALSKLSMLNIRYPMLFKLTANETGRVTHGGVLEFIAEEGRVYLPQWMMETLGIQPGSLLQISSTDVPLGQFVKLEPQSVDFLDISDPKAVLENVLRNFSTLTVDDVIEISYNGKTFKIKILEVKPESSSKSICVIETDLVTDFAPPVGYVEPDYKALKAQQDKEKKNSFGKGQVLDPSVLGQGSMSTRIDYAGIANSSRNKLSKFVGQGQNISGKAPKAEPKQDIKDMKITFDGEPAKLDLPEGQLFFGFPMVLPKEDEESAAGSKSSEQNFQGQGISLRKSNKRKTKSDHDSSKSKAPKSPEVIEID

[2] = target: T2, Slx5 subunit of the Slx5/8 STUbL, Y2H fusion (S. cerevisiae) (UniProt P32828); test: as above
T2 sequence: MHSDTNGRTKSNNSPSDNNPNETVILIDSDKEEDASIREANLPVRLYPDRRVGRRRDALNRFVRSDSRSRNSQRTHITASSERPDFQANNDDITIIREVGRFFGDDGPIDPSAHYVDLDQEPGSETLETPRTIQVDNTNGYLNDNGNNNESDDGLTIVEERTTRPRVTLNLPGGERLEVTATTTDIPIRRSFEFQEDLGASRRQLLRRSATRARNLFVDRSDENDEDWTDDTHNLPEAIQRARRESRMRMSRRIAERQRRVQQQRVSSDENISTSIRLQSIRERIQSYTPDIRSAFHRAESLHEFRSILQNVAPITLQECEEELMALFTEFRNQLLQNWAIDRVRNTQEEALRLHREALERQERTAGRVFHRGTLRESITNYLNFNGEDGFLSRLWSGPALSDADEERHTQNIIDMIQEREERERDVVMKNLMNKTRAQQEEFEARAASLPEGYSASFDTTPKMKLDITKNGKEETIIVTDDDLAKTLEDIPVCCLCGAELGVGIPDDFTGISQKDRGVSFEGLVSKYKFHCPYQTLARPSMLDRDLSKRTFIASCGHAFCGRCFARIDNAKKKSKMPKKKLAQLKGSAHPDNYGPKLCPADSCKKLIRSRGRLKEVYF

[3] = target: T3, catalytically dead Ulp2 (Ulp2-C624S), AD-fusion and BD-fusion for Y2H (S. cerevisiae) (UniProt P40537); test: condition: only in a Y2H reporter strain lacking both Siz1 and Siz2; two-hybrid; directed Y2H in a reporter strain in which both SUMO ligases Siz1 and Siz2 were deleted (Figure 4E)
T3 sequence: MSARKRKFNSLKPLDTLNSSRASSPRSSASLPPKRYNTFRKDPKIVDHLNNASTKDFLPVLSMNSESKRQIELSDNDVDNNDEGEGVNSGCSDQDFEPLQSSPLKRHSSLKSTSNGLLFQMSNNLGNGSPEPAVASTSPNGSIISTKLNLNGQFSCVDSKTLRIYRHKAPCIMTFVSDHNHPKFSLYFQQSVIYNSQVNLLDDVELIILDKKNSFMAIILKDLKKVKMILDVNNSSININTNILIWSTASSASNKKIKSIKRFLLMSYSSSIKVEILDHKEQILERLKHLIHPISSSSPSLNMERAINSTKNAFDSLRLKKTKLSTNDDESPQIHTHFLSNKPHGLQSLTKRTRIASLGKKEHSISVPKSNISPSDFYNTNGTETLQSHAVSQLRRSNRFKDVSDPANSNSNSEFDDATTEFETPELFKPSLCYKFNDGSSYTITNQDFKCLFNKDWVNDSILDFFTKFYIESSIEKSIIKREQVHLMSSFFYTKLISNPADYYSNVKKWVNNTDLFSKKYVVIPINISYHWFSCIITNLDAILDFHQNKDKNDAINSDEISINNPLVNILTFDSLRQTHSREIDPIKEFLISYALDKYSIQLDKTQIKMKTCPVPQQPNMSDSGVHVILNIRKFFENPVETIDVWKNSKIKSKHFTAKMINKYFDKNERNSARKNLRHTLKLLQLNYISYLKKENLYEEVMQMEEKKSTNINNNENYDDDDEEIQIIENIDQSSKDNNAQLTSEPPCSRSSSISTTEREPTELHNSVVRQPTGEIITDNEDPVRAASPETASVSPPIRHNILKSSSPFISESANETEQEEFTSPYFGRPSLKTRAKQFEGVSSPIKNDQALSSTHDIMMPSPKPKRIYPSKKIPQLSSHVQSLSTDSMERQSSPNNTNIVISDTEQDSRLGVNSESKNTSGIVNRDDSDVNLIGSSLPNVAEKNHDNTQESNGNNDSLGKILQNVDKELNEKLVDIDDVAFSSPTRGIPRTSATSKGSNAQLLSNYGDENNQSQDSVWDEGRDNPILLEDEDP

B1: Dbf4, AD-fusion and BD-fusion for Y2H (protein, UniProt P32325 1-704)
chain: MVSPTKMIIRSPLKETDTNLKHNNGIAASTTAAGHLNVFSNDNNCNNNNTTESFPKKRSLERLELQQQQHLHEKKRARIERARSIEGAVQVSKGTGLKNVEPRVTPKELLEWQTNWKKIMKRDSRIYFDITDDVEMNTYNKSKMDKRRDLLKRGFLTLGAQITQFFDTTVTIVITRRSVENIYLLKDTDILSRAKKNYMKVWSYEKAARFLKNLDVDLDHLSKTKSASLAAPTLSNLLHNEKLYGPTDRDPRTKRDDIHYFKYPHVYLYDLWQTWAPIITLEWKPQELTNLDELPYPILKIGSFGRCPFIGDRNYDESSYKRVVKRYSRDKANKKYALQLRALFQYHADTLLNTSSVNDQTKNLIFIPHTCNDSTKSFKKWMQEKAKNFEKTELKKTDDSAVQDVRNEHADQTDEKNSILLNETETKEPPLKEEKENKQSIAEESNKYPQRKELAATPKLNHPVLATFARQETEEVPDDLCTLKTKSRQAFEIKASGAHQSNDVATSFGNGLGPTRASVMSKNMKSLSRLMVDRKLGVKQTNGNNKNYTATIATTAETSKENRHRLDFNALKKDEAPSKETGKDSAVHLETNRKPQNFPKVATKSVSADSKVHNDIKITTTESPTASKKSTSTNVTLHFNAQTAQTAQPVKKETVKNSGYCENCRVKYESLEQHIVSEKHLSFAENDLNFEAIDSLIENLRFQI
B1 was tested, and the binding [1] was “binds”, the binding [2] was “binds” and the binding [3] was “no binding”.
